Assay results published in the supplement of paper PMC3724861.
The list shows a part of the results.

Tested on: T1, Caupolican (Caup) homeodomain DNA-binding domain
T1 sequence: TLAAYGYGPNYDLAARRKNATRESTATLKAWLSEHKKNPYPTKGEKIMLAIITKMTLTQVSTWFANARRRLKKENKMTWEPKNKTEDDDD
Test: PBM E-score (8-mer, recovered from the published 9-mer minima) (E-score (dimensionless, -0.5 to 0.5)); Drosophila protein; higher = stronger relative binding preference, active = 0.31 or more
Outline: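 Caup's homeodomain DNA-binding domain (residues 214-303) was produced by in vitro transcription and translation and applied at 100 nM to custom-designed protein binding microarrays. Each value is an enrichment score giving relative binding preference for a short DNA word; higher means stronger. Published 9-mer scores were the minimum of their two constituent 8-mer scores, and the 8-mer values were recovered from those minima. A cutoff of 0.31 marks candidate binding sequences.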

Sequence	PBM E-score
CTGCCCTC	inactive: -0.212
GACTAGTC	inactive: 0.11
AGTATACC	inactive: 0.111
CACATCTA	inactive: 0.208
GTACCCAA	inactive: 0.0255
AGACCGGC	inactive: -0.0973
AATGTCCC	inactive: 0.0508
CAGGGAAA	inactive: 0.00986
AAGCTGGC	inactive: -0.177
ATACATTA	inactive: 0.219
AGGCGACA	inactive: 0.0463
AGGTTCGG	inactive: -0.164
GATATGGA	inactive: 0.087
ATCCGTGG	inactive: -0.177
AATCCGAA	inactive: 0.0259
GCATTTCA	inactive: 0.0257
ATAAAACG	inactive: 0.104
ACTATCGA	inactive: 0.0431
ACTTTGGC	inactive: -0.0425
CTCGCTGA	inactive: -0.119
GAACCGTA	inactive: -0.0853
CCGCAGCG	inactive: -0.208
GCGTAAAC	inactive: -0.0748
CAAACGGG	inactive: -0.0757
AGGGGTGA	inactive: -0.118

Sequence	PBM E-score
GTTCCTAA	inactive: 0.0711
GCATGAGA	inactive: -0.0059
CCAACTCA	inactive: -0.095
ACATTGAC	inactive: 0.219
CGAGCTCC	inactive: -0.171
CCTCACAC	inactive: -0.0915
ACTACTGC	inactive: 0.0623
TGTTCCAA	inactive: 0.216
CAAAGGTA	inactive: 0.0276
GGCACAAC	inactive: 0.0276
CTATCCGA	inactive: 0.124
CCACATCC	inactive: -0.0474
CAGACTGG	inactive: -0.0602
GAAGACAA	inactive: 0.123
TGAAGAAA	inactive: 0.0487
CAATAATG	inactive: 0.109
TCCTATAA	inactive: 0.0664
GCCTAGAA	inactive: -0.135
GATTCAGC	inactive: -0.0453
ACATGTTG	active: 0.453
CCAAATCC	inactive: -0.0997
GCGAGGGA	inactive: -0.196
ACATTTCC	inactive: 0.147
CTACAGGC	inactive: -0.0109
CACTTCGA	inactive: -0.0269

Sequence	PBM E-score
GCCACGCC	inactive: -0.25
ATAGCGTC	inactive: 0.0181
ATGAACGC	inactive: 0.0253
GTCGAAAC	inactive: -0.00765
CAAAAATA	inactive: 0.0606
GGTTGTAC	inactive: 0.222
AATCAACG	inactive: 0.0957
ACTGGCTC	inactive: -0.118
ACGTTCGC	inactive: -0.0753
TATGGACA	inactive: 0.202
AGAACGGC	inactive: -0.0475
CCATGAAC	inactive: 0.0647
TAGTTAGA	≥ 0.102
ACTCAATC	inactive: 0.0442
ATGTTAGC	active: 0.314
AGTTGCAC	inactive: 0.0925
AGTCGTGC	inactive: -0.0465
AGGTCCCC	inactive: -0.328
CAGGTGCG	inactive: -0.106
CATTGTGC	inactive: 0.109
CGGCGGCC	inactive: -0.282
TACTAACA	inactive: 0.253
CAAAGTTC	inactive: -0.0431
CTTATTAA	inactive: 0.0685
AGTATTCG	inactive: -0.0184

Sequence	PBM E-score
CAGGGCAG	inactive: -0.156
AATCGGCT	inactive: -0.0112
GCCCATCC	inactive: -0.2
ACCCAGAC	inactive: -0.119
ACATTCTC	inactive: 0.11
ACACCGCG	inactive: 0.0608
CCTTATCA	inactive: 0.108
GAACCGGC	inactive: -0.153
CCTGTGAG	inactive: 0.0227
CTAGGTTC	inactive: -0.0599
GGTACACA	inactive: 0.28
CACAGATG	inactive: 0.135
CAGGAGAA	inactive: -0.0275
AATCCGTG	inactive: 0.0483
CGTGCGGA	inactive: -0.126
GACGTTCC	inactive: -0.0625
GAATACTA	inactive: 0.148
ATAGGTTA	inactive: 0.119
AGTAGACT	inactive: 0.0381
AACACCTT	inactive: 0.152
GACGAGGC	inactive: -0.186
TCTTCCAA	inactive: -0.0276
TAGCCACA	inactive: -0.0162
CAGCATAA	inactive: 0.0511
GGATTCAA	inactive: -0.0694

Sequence	PBM E-score
CATAAAAA	inactive: 0.166
CCTAAATC	inactive: 0.0181
AAACATCG	inactive: 0.217
CTTGTTGA	inactive: 0.26
AATTCTAA	inactive: 0.0854
CGGTCCTA	inactive: -0.123
TGGGGAAA	inactive: -0.0126
ACATTGCT	≥ 0.23
ATTTGCAG	inactive: 0.00423
GCGTTCCA	inactive: -0.0723
CCGCCCAA	inactive: -0.227
AGGCGAAG	inactive: -0.171
CAGACGCC	inactive: -0.147
ATTGGCCG	inactive: -0.0888
CCTTTCAC	inactive: -0.0888
AGCGTGAT	≥ 0.0866
GTACGTCA	inactive: 0.0986
CTACCTTA	inactive: -0.0253
TACAGGAA	inactive: 0.227
GAGTTCTA	inactive: -0.0956
ATGATTCG	inactive: 0.0716
AGTCGTAG	inactive: 0.0274
GCGTTTCC	inactive: -0.101
GCATATTA	inactive: 0.121
CCTTGGCC	inactive: -0.233

Sequence	PBM E-score
CAACGCTC	inactive: -0.00229
CAGAGGAG	inactive: -0.168
ATTCCGGA	inactive: 0.024
GCAAAAAA	inactive: -0.0391
GAAAAAGA	inactive: -0.0311
AGTACTTC	inactive: 0.0751
GCCCTGTA	inactive: 0.113
ATAATCCG	inactive: 0.0845
GTTTTCTA	inactive: 0.0826
GCAGCAGA	inactive: -0.13
ATCTGTGG	inactive: -0.00655
GCGTTACA	inactive: 0.198
ATTTCATC	inactive: 0.0661
GCGCCACC	inactive: -0.198
GCGCGGGA	inactive: -0.183
CGTATCCC	inactive: -0.0781
AGAACCAG	inactive: 0.0333
CGCACCAG	inactive: -0.0961
ATTAAGTG	inactive: 0.145
GGTTCAAA	inactive: -0.0146
TATAATGA	inactive: 0.0576
CAGGAATC	inactive: -0.00187
ACAAGTGT	inactive: 0.297
ATAATTAA	inactive: 0.218
AGCATCAC	inactive: 0.00867

Sequence	PBM E-score
GAGCTCCA	inactive: -0.145
ACATGGAG	inactive: 0.257
GATCGGTA	inactive: -0.00151
AAGACATT	inactive: 0.0764
CGCCCTGA	inactive: -0.108
CTGGTATC	inactive: 0.108
GCATGAAA	inactive: 0.111
GCACCGCC	inactive: -0.267
AGCAGGGC	inactive: -0.162
ACGATCTG	inactive: -0.0202
ACGAACAG	inactive: 0.137
CGCCGATC	inactive: -0.183
GCCAAAAA	inactive: -0.0156
ATAAACAC	inactive: 0.251
AGCCGAAC	inactive: -0.138
CCCCCAAG	inactive: -0.22
CCAGCACG	inactive: 0.0103
GCAACCTA	inactive: 0.0278
GCGGTTCA	inactive: -0.101
GACCGCAA	inactive: -0.095
AAGAACCG	inactive: 0.0113
CATCTCTA	inactive: 0.0541
ACATTCCT	inactive: 0.0891
CTCAGGAC	inactive: 0.011
ATGCACGA	inactive: 0.115

Sequence	PBM E-score
CACAAACC	inactive: -0.0236
AACTACAT	active: 0.408
CCTCCAGG	inactive: -0.152
ACTTCTAT	inactive: 0.117
AAAAGGCT	inactive: -0.0639
CCGACATA	inactive: 0.256
ACTAGGTA	inactive: 0.123
TGGGCCCA	inactive: -0.221
TAACCAAA	inactive: 0.135
CTTGATGA	inactive: 0.0992
CTAAATAC	inactive: 0.116
TGACTAAA	inactive: -0.0204
AGTGGTAA	inactive: 0.0991
CGTCCATC	inactive: -0.0772
CGAAGATC	inactive: -0.0713
CGTCGAAG	inactive: -0.0713
ACCTGTCG	inactive: 0.161
GGCGTAAA	inactive: -0.0244
ACCGTCGA	inactive: -0.0644
ATTGAGAA	inactive: 0.0669
CCTGAGCA	≥ 0.0176
ACTACCAC	inactive: 0.136
AATCCGTC	inactive: -0.0348
ACCCAAGC	inactive: -0.122
GAACGGGA	inactive: -0.16

Sequence	PBM E-score
CGAAGAAG	inactive: -0.0167
AGGGATTA	inactive: 0.053
AGAAATCC	inactive: -0.111
AAACTCTT	inactive: -0.0143
CTAGTGCC	inactive: -0.166
GACAAGGA	active: 0.314
GTGGCGGA	inactive: -0.124
CCTTGGAA	inactive: -0.0459
AGGATACA	inactive: 0.249
ACAAGGCA	inactive: 0.301
CAGCCACG	inactive: -0.165
GTACACAC	active: 0.331
AGTCTCAA	inactive: -0.0998
GAGTGGCA	inactive: -0.0892
ACTACCTG	inactive: 0.054
TCCGTCCA	≥ -0.0288
ATAGTCTA	inactive: 0.104
TAGGTCAA	inactive: 0.0641
CGTAATAG	inactive: 0.0865
AATCCGGC	inactive: -0.121
GTCCTTAA	inactive: 0.0893
CCTAATTA	inactive: 0.0584
CCCCCATC	inactive: -0.285
